Measured values as given in publication PMC4336329 (PLoS ONE, 2015).
The whole screen tested about 310,000 compounds, of which about 2,200 (0.71%) showed an effect of 50% or more. The effect is printed as a negative number. The list shows a part of the results.

Target: human ether-à-go-go-related gene (hERG) potassium channel (human, UniProt Q12809)
Assay: primary screen, population patch clamp on CHO cells stably expressing hERG

Sequence of human ether-à-go-go-related gene (hERG) potassium channel (Q12809 whole entry, looked up): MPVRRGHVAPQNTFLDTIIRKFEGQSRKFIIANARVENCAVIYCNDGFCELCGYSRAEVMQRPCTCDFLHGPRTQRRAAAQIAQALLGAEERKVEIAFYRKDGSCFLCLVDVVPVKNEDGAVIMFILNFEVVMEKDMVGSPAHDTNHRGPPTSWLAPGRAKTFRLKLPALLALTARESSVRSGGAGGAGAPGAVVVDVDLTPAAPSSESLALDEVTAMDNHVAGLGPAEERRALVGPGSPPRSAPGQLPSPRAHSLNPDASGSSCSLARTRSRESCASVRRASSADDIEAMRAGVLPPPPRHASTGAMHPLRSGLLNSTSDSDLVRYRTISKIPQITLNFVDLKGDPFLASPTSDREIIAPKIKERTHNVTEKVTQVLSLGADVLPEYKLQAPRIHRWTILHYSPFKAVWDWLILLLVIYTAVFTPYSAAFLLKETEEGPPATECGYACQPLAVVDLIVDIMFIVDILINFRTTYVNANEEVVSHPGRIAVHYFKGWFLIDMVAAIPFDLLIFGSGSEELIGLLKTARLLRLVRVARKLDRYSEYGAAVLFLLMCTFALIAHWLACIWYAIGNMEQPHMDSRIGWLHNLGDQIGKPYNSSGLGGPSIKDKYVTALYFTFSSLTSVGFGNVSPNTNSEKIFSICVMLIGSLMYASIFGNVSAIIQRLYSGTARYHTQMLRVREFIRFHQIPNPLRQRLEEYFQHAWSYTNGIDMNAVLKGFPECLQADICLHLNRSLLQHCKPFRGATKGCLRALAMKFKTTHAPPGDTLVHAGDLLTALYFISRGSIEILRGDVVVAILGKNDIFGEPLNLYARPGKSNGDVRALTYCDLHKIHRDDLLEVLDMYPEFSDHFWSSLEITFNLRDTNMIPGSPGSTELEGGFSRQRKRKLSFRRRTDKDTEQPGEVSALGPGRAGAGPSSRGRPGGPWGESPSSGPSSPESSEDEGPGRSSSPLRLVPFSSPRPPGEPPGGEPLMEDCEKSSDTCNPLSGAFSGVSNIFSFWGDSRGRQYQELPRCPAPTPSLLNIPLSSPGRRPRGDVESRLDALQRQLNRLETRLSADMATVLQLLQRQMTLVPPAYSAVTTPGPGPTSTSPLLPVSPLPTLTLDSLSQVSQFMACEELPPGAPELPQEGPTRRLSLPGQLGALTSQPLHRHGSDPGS

Row | Structure (SMILES) | hERG current change (%, negative = inhibition) at 1uM
1 | COc1ccc(Br)cc1CNC(=O)CCC(=O)n1nc(C)c2ccccc21 | 13.8%
2 | Nc1nc2c(-c3ccc(Br)cc3)nnn2c2ccccc12 | 14%
3 | O=C1NCCN(Cc2cccc(Oc3ccccc3)c2)C1CC(=O)N1CCCCO1 (stereo not drawn) | -3.92%
4 | CC(C)C(NC(=O)c1cccc(S(=O)(=O)N2CCOCC2)c1)C(=O)NCCc1ccccn1 (stereo not drawn) | 14.3%
5 | COCCNc1nc2c(-c3cccc(C(F)(F)F)c3)nnn2c2ccccc12 | 12.6%
6 | CCn1c(=O)cc(OCC(=O)NCCC(C)C)c2ccccc21 | 2.9%
7 | Cc1ccc(NC(=O)C2CCN(S(=O)(=O)c3cccc4nonc34)CC2)cc1 | 12.5%
8 | COc1ccc2ccn(S(=O)(=O)c3ccccc3)c2c1 | 14.1%
9 | CCCn1c(N)c(C(=O)CN(C)CC(=O)Nc2ccccc2C(F)(F)F)c(=O)[nH]c1=O | 11.8%
10 | COc1ccc(NCc2ccccc2[N+](=O)[O-])cc1OC | 6.96%
11 | C=C(C)C1CC=C(C)/C(=N/NC(=O)COc2cccc3ccccc23)C1 (stereo not drawn) | 3.66%
12 | CCN(CC)/C(=N\S(=O)(=O)c1ccc(F)cc1)c1ccccc1 | 7.29%
13 | CCN1CCc2c(OCC(=O)Nc3ccccc3)cccc2C1=O | 8.27%
14 | CCC1Oc2ccc(C)cc2N(CC(=O)NCCCN2CCCC2)C1=O (stereo not drawn) | 10.5%
15 | CCOC(=O)c1c(C)oc2cc(Br)c(OCC(N)=O)cc12 | 7.6%
16 | O=C1c2ccccc2C(=O)c2cc(NC(=O)C3CC3)ccc21 | 6.82%
17 | CCn1c(C)c(C(=O)NCCc2ccccc2)c2cc(OC)ccc21 | 0.777%
18 | COc1cccc(NC(=O)CSc2ccc3nnc(-c4ccccn4)n3n2)c1 | 6.48%
19 | Cc1ccc(OCCSCc2nc3ccccc3[nH]2)cc1 | 1.28%
20 | CC(=O)c1cccc(NC(=O)c2cc(C)nn2-c2ccccc2)c1 | 3.5%
21 | O=C(O)c1ccccc1OCc1ccccc1Br | 4.41%
22 | COc1ccc(N2CCN(C(C)C(=O)N3CCCC3)CC2)cc1.O=C(O)C(=O)O (stereo not drawn) | 13.2%
23 | O=C(O)C(=O)O.O=C(c1ccccc1)N1CCN(Cc2ccccc2)CC1 | 2.81%

Row | Structure (SMILES) | hERG current change (%, negative = inhibition) at 1uM
24 | COc1ccc(-c2cn(Cc3ccc4c(c3)C(=O)c3ccccc3C4=O)nn2)cc1 | 1.17%
25 | COc1ccc(Cl)cc1Nc1nc(-c2cccnc2)cs1 | 12.8%
26 | COc1ccc(C(C)(C)C)cc1NC(=O)c1c(C)noc1C | -5.53%
27 | CC(=O)Nc1ccc(OC(=O)C(CCS(C)(=O)=O)N2C(=O)c3ccccc3C2=O)cc1 (stereo not drawn) | 12.3%
28 | CCOC(=O)CC1=C(C(=O)OCC)C(c2cccs2)C(C#N)=C(N)O1 (stereo not drawn) | 8.69%
29 | COc1ccc(Cl)cc1NC(=S)NCCc1ccc(S(N)(=O)=O)cc1 | 9.25%
30 | CCN(CC)C(=O)CSc1nnc(-c2ccccc2)n1-c1ccccc1 | 13.3%
31 | CN1CCN(C(=O)c2ccc(CSc3ccc(Cl)cc3)cc2)CC1 | -17.1%
32 | CCc1ccc(C(=O)NNC(=O)OC)cc1 | 8.42%
33 | COc1ccc(/C(N)=N/OC(=O)Cc2ccccc2[N+](=O)[O-])cc1 | 10.3%
34 | Cc1cc(C)c2c(NC(=O)C3CC3)nn(C)c2n1 | 7.94%
35 | CC(C)(C)NC(=O)c1ccc(COCC(F)(F)F)o1 | -0.831%
36 | Cc1ccc2oc(=S)n(C)c2c1 | 7.53%
37 | Nc1cc(=O)[nH]c2nnc(SCC(=O)Nc3cccc4ccccc34)n12 | 9.74%
38 | COC(=O)C1=C(C(=O)OC)C2(OC1c1ccccc1C)C(=O)c1ccccc1C2=O (stereo not drawn) | 16.3%
39 | CC(C)[C@H](NC(=O)c1ccccc1)C(=O)OCC(=O)/C=C1/N(C)c2ccccc2C1(C)C | 12%
40 | COc1ccc(C(=O)NCc2nnc(SCC(=O)Nc3ccccc3OC)o2)cc1 | 11.3%
41 | O=C(CSc1nnc(Cc2csc(Nc3cccc(Cl)c3)n2)o1)N1CCc2ccccc21 | 6.29%
42 | O=C(CNC(=O)c1cccs1)Nc1ccc2c(c1)OCCO2 | 11.6%
43 | CCOc1ccc(Cl)cc1CNCCc1ccc(F)cc1.Cl | -20.6%
44 | CC1CCN(CC(=O)NCc2ccco2)CC1 | 12.5%
45 | CCc1ccc(O)c(-c2cc(C(=O)Nc3cccnc3)[nH]n2)c1 | 4.42%
46 | O=C(OCc1nc2ccccc2s1)c1cccc(S(=O)(=O)N2CCOCC2)c1 | 0.86%

Row | Structure (SMILES) | hERG current change (%, negative = inhibition) at 1uM
47 | CCOC(=O)c1n[nH]n(-c2cc(Cl)cc(Cl)c2)c1=O | 12.5%
48 | CCCCCCCC(=O)N/N=C(\C)c1ccc(N)cc1 | 6.45%
49 | COc1cc(NC(=S)Nc2ccc(N(C)C(C)=O)cc2)cc(OC)c1 | 6.21%
50 | CCOC(=O)c1c(NC(=O)C2CCCCC2C(=O)O)sc2c1CCCCC2 (stereo not drawn) | 14.3%
51 | Fc1cc(Cl)c(OCc2noc(-c3ccsc3)n2)c(Cl)c1 | 9%
52 | COc1ccccc1C(C(=O)NCc1ccc(F)cc1)N(C(=O)c1csnn1)C1CC1 (stereo not drawn) | 5.46%
53 | O=C(CNC(=O)c1ccccc1F)N/N=C/c1cccnc1 | 15%
54 | COCCn1c(SCC(=O)NC2CCCCC2)nnc1-c1ccco1 | 9.89%
55 | O=C(Cn1cc(C(F)(F)F)ccc1=O)N/N=C/c1ccc(Cl)cc1Cl | 4.2%
56 | Cc1ccc(NC(=O)CCN2CCN(C/C=C/c3ccccc3)CC2)cc1C.Cl | -53.2%
57 | CCN(CC)CCN1C(=O)C(=O)/C(=C(/O)c2ccncc2)C1c1ccccc1 (stereo not drawn) | 14.8%
58 | COc1cc(NCC(=O)Nc2cccc(S(=O)(=O)N3CCCCC3)c2)cc(OC)c1OC | -2.64%
59 | CC(=O)c1sc(NC(=O)C(C)(C)C)nc1C | 13.6%
60 | COc1ccc(C(=O)N2CCCCC2C(=O)Nc2ccc(-n3nc(C)cc3C)cc2)o1 (stereo not drawn) | 5.34%
61 | Cn1cnc(S(=O)(=O)Nc2ccccc2C(=O)NCC2CC2)c1 | 9.61%
62 | CC(Oc1ccccc1)C(=O)Nc1cccc(-c2nc3ccccc3[nH]2)c1 (stereo not drawn) | -3.3%
63 | COc1cccc(OCc2cc(C(=O)N(C)Cc3nccn3C)no2)c1 | 12.8%
64 | CCOc1ccc(NC(=O)CN(C)C(=O)c2ccc(C)o2)cc1OCC | 9.15%
65 | CCc1ccc(C(=O)CSc2nc(C)cc(=O)[nH]2)cc1 | 15.7%
66 | O=C(N/C(=C\c1cccnc1)C(=O)N1CCC(O)CC1)c1ccccc1 | 15%
67 | CCCn1c(N)c(N(CCOC)C(=O)c2cccc(F)c2)c(=O)[nH]c1=O | 16.7%
68 | CC(=O)CSc1nnc(Cc2ccc3c(c2)OCO3)o1 | 3.55%
69 | CC1CCCCN1S(=O)(=O)c1ccc(S(=O)(=O)N2CCN(C)CC2)cc1 (stereo not drawn) | 18.4%

Row | Structure (SMILES) | hERG current change (%, negative = inhibition) at 1uM
70 | COc1ccc(C2(NC(C)=O)CCN(Cc3cccnc3)CC2)cc1 | 15.5%
71 | COCCCn1c(SCC(=O)Nc2cccc(C)n2)nnc1-c1ccco1 | -20.6%
72 | O=C(COC(=O)CCC1CCCC1)Nc1ccccc1Sc1ccccc1 | 17.9%
73 | CC(NC(=O)CN1CCN(c2ncccn2)CC1)c1ccc(F)cc1 (stereo not drawn) | -0.407%
74 | CCNC(=O)NC(=O)C(C)SCc1ccccc1C (stereo not drawn) | 18.7%
75 | Cc1ccc2ncc(S(=O)(=O)c3ccccc3)c(N3CCCCC3C)c2c1 (stereo not drawn) | 13.3%
76 | COc1cc(C(=O)N2CCN(Cc3ccc4c(c3)OCO4)CC2)cc(OC)c1OC.O=C(O)C(=O)O | -7.46%
77 | CCOC(=O)Cc1c(C)c2c(C)nn(-c3ccccc3)c2oc1=O | 1.63%
78 | O=C(/C=C/c1cccc(Cl)c1)Nc1ncccn1 | 15.3%
79 | COc1cc(C(=O)N2c3ccccc3CCC2C)cc(OC)c1OC (stereo not drawn) | 9.99%
80 | CCCC(C)NC(=O)CN1C(=O)c2cccc3cccc1c23 (stereo not drawn) | 0.805%
81 | CCC1(CC)Cc2ccccc2-c2nc(CN3CCOCC3)[nH]c(=O)c21 | 8.32%
82 | COc1ccc(C)cc1-n1nnnc1SCC1CCCO1 (stereo not drawn) | 5.83%
83 | Cc1cccc(-c2cccc(NC(=O)C3CCCN(C(=O)c4ocnc4C)C3)c2)c1 (stereo not drawn) | 7.72%
84 | Cc1[nH]n(-c2cccc3ccccc23)c(=O)c1/C=N/NC(=O)c1cccc([N+](=O)[O-])c1 | -7.57%
85 | COc1cccc(OC)c1C(=O)Nc1ccc(Cc2ccncc2)cc1 | 3%
86 | CC(=O)c1cccc(OCc2cc(C(=O)N(C)Cc3ccc(C)o3)no2)c1 | 4.59%
87 | O=C(Nc1ccccc1NC(=O)c1ccco1)c1ccco1 | -6.47%
88 | Cc1cccc(N(Cc2ccccc2)C(=O)c2ccc(C)c(S(=O)(=O)N3CCOCC3)c2)c1 | 5.49%
89 | COC(=O)C1=C(C)NC(=O)CC1c1ccc(F)c(Br)c1 (stereo not drawn) | -1.39%
90 | CC(OC(=O)c1ccccc1C(=O)N(C)c1ccccc1)C(=O)Nc1ccc(C(N)=O)cc1 (stereo not drawn) | 16.1%
